In paper PMC11790958 (The EMBO Journal, 2024):

Target: T1, human condensin I tetramer lacking NCAPD2 (human, UniProt O95347; Q9NTJ3; Q15003; Q9BPX3)
T1 construct: SMC2, human condensin I subunit; SMC4, human condensin I subunit; NCAPH, human condensin I kleisin subunit; NCAPG, human condensin I HAWK subunit; The complex carries a strep tag; also called CIΔD2; pBIG2ab Condensin I delD2 strep; source: Sf9 insect cells (baculovirus), co-expressed, purified (StrepTrap, heparin, SEC); copies: + + +
Assay: mass photometry; Refeyn TwoMP; HAWK subunit added to the tetramer; 20 mM HEPES pH 8, 150 mM KCl; final protein ~7 nM
Conditions: both partners purified

T1 sequence (O95347 whole entry, chain 1 of 4): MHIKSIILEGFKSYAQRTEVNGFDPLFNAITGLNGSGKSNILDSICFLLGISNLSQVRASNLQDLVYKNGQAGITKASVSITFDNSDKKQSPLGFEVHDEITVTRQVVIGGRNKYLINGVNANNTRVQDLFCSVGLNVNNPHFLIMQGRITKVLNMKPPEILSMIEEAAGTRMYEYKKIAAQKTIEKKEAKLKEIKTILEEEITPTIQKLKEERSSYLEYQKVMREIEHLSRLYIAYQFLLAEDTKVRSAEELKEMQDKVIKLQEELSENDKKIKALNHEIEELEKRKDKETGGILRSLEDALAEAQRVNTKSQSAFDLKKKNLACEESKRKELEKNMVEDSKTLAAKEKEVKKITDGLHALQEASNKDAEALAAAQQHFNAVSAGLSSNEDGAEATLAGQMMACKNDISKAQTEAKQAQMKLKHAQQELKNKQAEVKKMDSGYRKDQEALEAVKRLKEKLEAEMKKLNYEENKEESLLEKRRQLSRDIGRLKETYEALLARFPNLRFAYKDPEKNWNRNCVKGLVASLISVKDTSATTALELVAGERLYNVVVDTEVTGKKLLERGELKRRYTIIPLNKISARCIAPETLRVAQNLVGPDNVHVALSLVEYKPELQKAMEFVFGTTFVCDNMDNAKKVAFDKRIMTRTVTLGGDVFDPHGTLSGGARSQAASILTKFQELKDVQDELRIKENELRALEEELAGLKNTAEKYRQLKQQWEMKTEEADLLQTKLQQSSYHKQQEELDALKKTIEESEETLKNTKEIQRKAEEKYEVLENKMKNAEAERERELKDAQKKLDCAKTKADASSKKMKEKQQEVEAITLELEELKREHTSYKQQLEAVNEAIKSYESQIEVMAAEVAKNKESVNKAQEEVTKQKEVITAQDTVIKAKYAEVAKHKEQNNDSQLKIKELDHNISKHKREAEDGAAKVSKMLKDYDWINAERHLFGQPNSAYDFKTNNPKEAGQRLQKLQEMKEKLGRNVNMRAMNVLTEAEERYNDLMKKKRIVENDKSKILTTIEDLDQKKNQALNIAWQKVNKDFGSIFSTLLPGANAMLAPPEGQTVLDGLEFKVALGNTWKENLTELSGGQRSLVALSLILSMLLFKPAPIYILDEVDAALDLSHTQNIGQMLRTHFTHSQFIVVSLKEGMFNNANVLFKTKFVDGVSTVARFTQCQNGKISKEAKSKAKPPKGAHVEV
T1 sequence (Q9NTJ3 whole entry, chain 2 of 4, further chain): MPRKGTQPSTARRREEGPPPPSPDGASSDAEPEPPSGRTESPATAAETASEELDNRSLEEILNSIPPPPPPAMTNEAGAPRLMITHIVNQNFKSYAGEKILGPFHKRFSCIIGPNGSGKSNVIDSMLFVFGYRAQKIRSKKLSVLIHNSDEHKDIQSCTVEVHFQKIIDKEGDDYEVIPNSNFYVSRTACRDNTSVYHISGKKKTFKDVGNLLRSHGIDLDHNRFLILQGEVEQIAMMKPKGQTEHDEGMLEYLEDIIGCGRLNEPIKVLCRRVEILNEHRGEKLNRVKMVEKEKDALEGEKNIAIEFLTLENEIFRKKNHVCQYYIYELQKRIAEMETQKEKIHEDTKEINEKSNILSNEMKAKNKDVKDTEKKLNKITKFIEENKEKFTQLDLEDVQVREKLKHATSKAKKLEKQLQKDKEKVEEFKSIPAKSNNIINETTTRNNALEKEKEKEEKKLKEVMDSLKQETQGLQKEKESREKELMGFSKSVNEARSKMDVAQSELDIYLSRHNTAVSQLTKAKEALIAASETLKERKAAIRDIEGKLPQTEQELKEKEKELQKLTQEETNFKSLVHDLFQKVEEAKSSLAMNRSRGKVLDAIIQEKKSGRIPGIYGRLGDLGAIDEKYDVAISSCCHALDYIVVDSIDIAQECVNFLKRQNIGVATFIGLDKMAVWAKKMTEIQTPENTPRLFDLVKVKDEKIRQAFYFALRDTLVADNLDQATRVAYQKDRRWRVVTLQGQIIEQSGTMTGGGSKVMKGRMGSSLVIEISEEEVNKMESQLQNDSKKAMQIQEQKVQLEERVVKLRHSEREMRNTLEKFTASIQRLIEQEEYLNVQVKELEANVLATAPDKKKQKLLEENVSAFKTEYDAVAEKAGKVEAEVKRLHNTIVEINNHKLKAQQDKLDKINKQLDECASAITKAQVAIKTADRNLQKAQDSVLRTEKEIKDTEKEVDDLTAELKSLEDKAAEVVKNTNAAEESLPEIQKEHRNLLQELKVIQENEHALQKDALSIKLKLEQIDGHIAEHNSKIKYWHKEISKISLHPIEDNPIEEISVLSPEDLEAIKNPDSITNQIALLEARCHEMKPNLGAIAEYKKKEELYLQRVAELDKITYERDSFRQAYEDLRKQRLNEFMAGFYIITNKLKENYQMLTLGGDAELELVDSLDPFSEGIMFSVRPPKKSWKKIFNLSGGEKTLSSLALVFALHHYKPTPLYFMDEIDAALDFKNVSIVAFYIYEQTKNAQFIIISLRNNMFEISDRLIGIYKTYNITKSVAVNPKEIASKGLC
T1 sequence (Q15003 whole entry, chain 3 of 4, further chain): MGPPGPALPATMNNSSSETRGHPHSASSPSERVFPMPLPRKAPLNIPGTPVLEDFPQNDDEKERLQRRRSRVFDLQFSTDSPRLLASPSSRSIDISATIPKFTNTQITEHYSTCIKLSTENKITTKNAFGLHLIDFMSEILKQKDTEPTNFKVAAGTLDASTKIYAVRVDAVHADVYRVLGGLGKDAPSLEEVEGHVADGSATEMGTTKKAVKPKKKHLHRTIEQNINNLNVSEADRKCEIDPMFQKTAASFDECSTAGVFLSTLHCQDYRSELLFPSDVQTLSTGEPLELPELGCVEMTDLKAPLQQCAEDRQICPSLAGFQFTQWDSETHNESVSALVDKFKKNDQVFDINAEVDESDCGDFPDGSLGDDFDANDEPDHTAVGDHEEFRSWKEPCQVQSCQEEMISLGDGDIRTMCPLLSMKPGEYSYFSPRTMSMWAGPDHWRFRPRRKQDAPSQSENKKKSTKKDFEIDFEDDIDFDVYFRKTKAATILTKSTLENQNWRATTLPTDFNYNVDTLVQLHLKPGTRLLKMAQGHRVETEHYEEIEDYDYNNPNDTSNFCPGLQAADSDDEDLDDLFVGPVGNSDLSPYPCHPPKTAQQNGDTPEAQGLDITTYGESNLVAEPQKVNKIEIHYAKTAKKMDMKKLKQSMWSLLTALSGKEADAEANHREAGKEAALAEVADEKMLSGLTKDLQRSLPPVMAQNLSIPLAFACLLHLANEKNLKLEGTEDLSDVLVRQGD
T1 sequence (Q9BPX3 whole entry, chain 4 of 4, further chain): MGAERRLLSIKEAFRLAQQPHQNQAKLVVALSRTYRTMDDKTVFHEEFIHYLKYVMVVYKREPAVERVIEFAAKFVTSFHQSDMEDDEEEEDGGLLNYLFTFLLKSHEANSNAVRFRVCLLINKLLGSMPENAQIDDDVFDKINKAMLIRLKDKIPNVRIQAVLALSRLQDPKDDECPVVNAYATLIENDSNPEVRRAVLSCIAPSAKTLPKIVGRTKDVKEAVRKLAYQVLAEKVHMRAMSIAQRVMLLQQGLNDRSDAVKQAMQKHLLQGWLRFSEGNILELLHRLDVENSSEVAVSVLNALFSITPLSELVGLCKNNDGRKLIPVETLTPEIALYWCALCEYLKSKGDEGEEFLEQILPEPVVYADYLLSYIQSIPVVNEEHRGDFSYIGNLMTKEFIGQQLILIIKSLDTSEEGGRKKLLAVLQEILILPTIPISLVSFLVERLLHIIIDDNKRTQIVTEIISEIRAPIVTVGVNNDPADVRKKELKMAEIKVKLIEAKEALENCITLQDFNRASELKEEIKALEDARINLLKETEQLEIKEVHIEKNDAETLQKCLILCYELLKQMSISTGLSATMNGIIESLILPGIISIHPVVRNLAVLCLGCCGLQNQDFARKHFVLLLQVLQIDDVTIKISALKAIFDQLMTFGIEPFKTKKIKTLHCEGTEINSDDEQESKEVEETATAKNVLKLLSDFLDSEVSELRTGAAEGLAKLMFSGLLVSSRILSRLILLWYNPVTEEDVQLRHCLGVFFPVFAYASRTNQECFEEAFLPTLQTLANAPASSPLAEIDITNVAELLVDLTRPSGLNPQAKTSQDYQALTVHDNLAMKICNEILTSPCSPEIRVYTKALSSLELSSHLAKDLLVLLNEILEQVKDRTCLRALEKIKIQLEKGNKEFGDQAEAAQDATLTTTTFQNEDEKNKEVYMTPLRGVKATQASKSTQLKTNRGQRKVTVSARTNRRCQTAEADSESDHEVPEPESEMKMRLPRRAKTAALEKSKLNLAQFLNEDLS

B1: NCAPD2 (recombinant human condensin I HAWK subunit) (natural protein)
chain: not shown
notes: NCAPD2, human condensin I HAWK subunit; also called NCAPD2 alone; pLIB NCAPD2 ystrep; source: Sf9 insect cells (baculovirus), purified (StrepTrap, heparin, SEC)
  binding result: binds
